Measurements as given in publication PMC7160206.
Results are given in words; binding and its absence hold for the method and conditions named. Binding seen in cells or lysates may run through a third protein. Some entries that bind do so weakly or less than the wild type. For some assays here: Tags and fused reporters may be left off the sequences shown. Values belong to the binder of their own block, whether it stands above or below them.

Chains of the proteins cited; added tags and fusions are not shown.
UniProt Q9FIJ0: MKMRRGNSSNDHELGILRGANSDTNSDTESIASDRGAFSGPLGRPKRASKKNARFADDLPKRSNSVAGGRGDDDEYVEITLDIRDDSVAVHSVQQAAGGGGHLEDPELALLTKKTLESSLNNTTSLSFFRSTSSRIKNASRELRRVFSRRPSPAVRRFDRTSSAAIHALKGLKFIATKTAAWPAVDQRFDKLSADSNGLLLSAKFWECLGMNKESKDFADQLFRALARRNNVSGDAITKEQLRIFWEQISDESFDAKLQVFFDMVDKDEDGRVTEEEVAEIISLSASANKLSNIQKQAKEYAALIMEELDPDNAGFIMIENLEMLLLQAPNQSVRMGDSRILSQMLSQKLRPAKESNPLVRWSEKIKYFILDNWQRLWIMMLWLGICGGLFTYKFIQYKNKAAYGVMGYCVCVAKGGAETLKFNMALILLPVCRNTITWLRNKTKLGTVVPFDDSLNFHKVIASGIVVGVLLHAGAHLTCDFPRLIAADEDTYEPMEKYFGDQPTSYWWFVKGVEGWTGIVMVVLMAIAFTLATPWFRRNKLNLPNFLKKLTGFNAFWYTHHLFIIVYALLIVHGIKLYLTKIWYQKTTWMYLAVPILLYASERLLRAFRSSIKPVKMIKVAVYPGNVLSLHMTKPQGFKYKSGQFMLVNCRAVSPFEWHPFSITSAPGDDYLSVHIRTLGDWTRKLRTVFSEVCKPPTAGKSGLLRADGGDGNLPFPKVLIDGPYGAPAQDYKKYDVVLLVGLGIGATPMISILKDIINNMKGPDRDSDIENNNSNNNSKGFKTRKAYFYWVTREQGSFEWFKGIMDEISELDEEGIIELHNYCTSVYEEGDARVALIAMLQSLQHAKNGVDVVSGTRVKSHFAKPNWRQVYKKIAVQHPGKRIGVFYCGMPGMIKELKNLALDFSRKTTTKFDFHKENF

What was measured:
[1] = target: native RBOHD (Arabidopsis thaliana (endogenous in Arabidopsis seedlings)) (UniProt Q9FIJ0); assay: co-IP; solubilised (2% IGEPAL) microsomal fractions of 10-day-old Arabidopsis transgenic seedlings; native RBOHD detected with anti-RBOHD; for YFP-PIRE anti-GFP beads, without and with flg22 treatment
[2] = target: GFP-RBOHD (Arabidopsis thaliana) (UniProt Q9FIJ0); assay: co-IP; Arabidopsis mesophyll protoplasts of the line 35S::PBL13-3xFLAG/pbl13-2 #8-3 transfected with GFP fusions; anti-GFP (GFP-Trap) immunoprecipitation; IP buffer 50 mM Tris-HCl pH 7.5, 150 mM NaCl, 10% glycerol, 2% IGEPAL; 4 °C
LTI6b-GFP = target: T1, LTI6b-GFP (UniProt Q9ZNS6); assay: as above
T1 sequence: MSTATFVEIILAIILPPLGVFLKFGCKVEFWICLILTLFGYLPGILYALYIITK

YFP-LTI6b-3xFLAG = target: T2, YFP-LTI6b-3xFLAG (UniProt Q9ZNS6); assay: co-IP; transient co-expression in N. benthamiana leaves; GFP-Trap immunoprecipitation of YFP fusions, 4 °C, 2 h; IP buffer 150 mM Tris-HCl pH 7.5, 150 mM NaCl, 10% glycerol, 2% IGEPAL
T2 sequence: T1 sequence

[3] = target: YFP-RBOHD (Arabidopsis thaliana) (UniProt Q9FIJ0); assay: as above

binding [1]: binds | binding [2]: binds | binding (LTI6b-GFP): no binding
B1: PBL13-3xFLAG (protein, UniProt F4JZW1 1-494)
chain: MVLCFQDPDNIYSPKKTKKDDGERVITKQKSFLGLSILDISNPSSTTLSEDLSISLAGSDLHVFTQAELRVITQSFSSSNFLGEGGFGPVHKGFIDDKLRPGLKAQPVAVKLLDLDGLQGHREFMTEVMCLGKLKHPNLVKLIGYCCEEAHRLLVYEFMPRGSLESQLFRRCSLPLPWTTRLNIAYEAAKGLQFLHEAEKPIIYRDFKASNILLDSDYTAKLSDFGLAKDGPQGDDTHVSTRVMGTQGYAAPEYIMTGHLTAKSDVYSFGVVLLELLTGRKSVDIARSSRKETLVEWARPMLNDARKLGRIMDPRLEDQYSETGARKAATLAYQCLRYRPKTRPDISTVVSVLQDIKDYKDDIPIGIFTYTVPTKPRREVKETSLQNFDKPRRETKVTSLQNFDKTRREVKDTSLQNFDKTRREVKETSLQNFDKTRREVKETSLQNFDKPRNVSTTDNHQKFRSPAHTARNHRITLRNGYNSPMRNEAGGERY

binding (YFP-LTI6b-3xFLAG): no binding | binding [3]: binds
B2: PBL13-3xHA (protein, UniProt F4JZW1 1-494)
chain: B1 chain
